Source: the supplement of paper PMC4967469
IC50 is the fitted dose that halves viability relative to control wells, and lower means more sensitive; a fit beyond the top or the lowest dose is shown as a bound at that dose. AUC sums up the same curve from the lowest dose to the 256-fold higher top dose; the more sensitive the line, the further below 1. For some assays here: The top dose, if marked as inferred, comes from the curve model; the source does not state it. For some assays here: An entry number marks a drug with two screens in the source, which often give different values.

Legend:
Test in all cases: Viability of human cancer cell lines after 72 h of drug (GDSC screen)
UNC0638 = compound: COc1cc2c(NC3CCN(C(C)C)CC3)nc(C3CCCCC3)nc2cc1OCCCN1CCCC1 [UNC0638]
Description: (§1)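 Human cancer cell lines in 384-well plates, medium with 10% serum, drug for 72 h over a 256-fold dose range (nine 2-fold or five 4-fold steps up to the top dose). Adherent lines were fixed and stained with the nucleic acid dye Syto60, suspension lines read with resazurin; signal relative to control wells, capped at 0 and 100%. One two-parameter sigmoid per drug and line, fitted in a mixed model over all curves with the slope shared within a line.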

PI-103 = compound: Oc1cccc(-c2nc(N3CCOCC3)c3oc4ncccc4c3n2)c1 [PI-103]; conditions: top dose 10.24 µM
Description: as §1

GSK690693 = compound: CCn1c(-c2nonc2N)nc2c(C#CC(C)(C)O)ncc(OC[C@H]3CCCNC3)c21 [GSK690693]; conditions: top dose 10.24 µM; top dose inferred
Description: as §1

SB-505124 = compound: Cc1cccc(-c2[nH]c(C(C)(C)C)nc2-c2ccc3c(c2)OCO3)n1 [SB-505124]; conditions: top dose 10 µM; top dose inferred
Description: as §1

BX-795 = compound: O=C(NCCCNc1nc(Nc2cccc(NC(=O)N3CCCC3)c2)ncc1I)c1cccs1 [BX-795]; conditions: top dose 5 µM; top dose inferred
Description: as §1

Tretinoin = compound: CC1=C(/C=C/C(C)=C/C=C/C(C)=C/C(=O)O)C(C)(C)CCC1 [Tretinoin]; conditions: top dose 10 µM; top dose inferred
Description: as §1

[1] = top dose 20 µM, screen: GDSC drug entry 1236, top dose inferred
[2] = top dose 40 µM, screen: GDSC drug entry 245

Cell Line	AUC (UNC0638; [1])	IC50 (UNC0638; [1]) [µM]	AUC (UNC0638; [2])	IC50 (UNC0638; [2]) [µM]	AUC (PI-103)	IC50 (PI-103) [nM]	AUC (GSK690693)	IC50 (GSK690693) [µM]	AUC (SB-505124)	IC50 (SB-505124) [µM]	AUC (BX-795)	IC50 (BX-795) [µM]	AUC (Tretinoin)	IC50 (Tretinoin) [µM]
OACM5-1 (oesophagus, semi-adherent)	0.958	> 20	0.695	9.52	0.196	69.1	0.381	0.287	0.979	> 10	0.981	> 5	0.943	> 10
OACp4C (oesophagus, adherent)	0.832	16.5	0.71	11.2	0.386	290	0.77	4.68	0.92	> 10	0.8	3	0.975	> 10
OAW-42 (ovary, adherent)	0.983	> 20	0.876	> 40	0.728	3040	0.878	> 10.2	0.984	> 10	0.867	> 5	0.971	> 10
OC-314 (ovary, adherent)	0.827	9.95	0.868	28	0.404	365	0.927	> 10.2	0.974	> 10	0.891	4.37	0.991	> 10
OE19 (oesophagus, adherent)	0.898	> 20	0.95	> 40	0.984	> 10200	0.986	> 10.2	0.982	> 10	0.952	> 5	0.967	> 10
OE21 (oesophagus, adherent)	0.697	5.57	0.785	24.6	0.828	9860	0.929	> 10.2	0.963	> 10	0.774	2.75	0.906	> 10
OE33 (oesophagus, adherent)	0.808	12.8	0.652	7.18	0.787	5390	0.975	> 10.2	0.982	> 10	0.936	> 5	0.971	> 10
OSC-20 (head and neck, adherent)	0.867	> 20	0.763	17	0.683	2310	0.928	> 10.2	0.967	> 10	0.78	2.46	0.915	> 10
OV-7 (ovary, adherent)	0.878	> 20	0.817	39.3	0.491	598	0.94	> 10.2	0.93	> 10	0.72	1.85	0.83	> 10
OV-17R (ovary, adherent)	0.943	> 20	0.877	> 40	0.55	924	0.937	> 10.2	0.978	> 10	0.918	> 5	0.981	> 10
OV-56 (ovary, adherent)	0.924	> 20	0.879	38.2	0.596	1160	0.963	> 10.2	0.988	> 10	0.866	4.16	0.982	> 10
OV-90 (ovary, adherent)	0.886	> 20	0.858	> 40	0.981	> 10200	0.973	> 10.2	0.942	> 10	0.851	> 5	0.943	> 10
OVCA420 (ovary, adherent)	0.952	> 20	0.93	> 40	0.981	> 10200	0.979	> 10.2	0.974	> 10	0.961	> 5	0.87	> 10
OVCA433 (ovary, adherent)	0.83	14.5	0.77	17	0.734	3230	0.974	> 10.2	0.981	> 10	0.812	3.06	0.985	> 10
OVCAR-5 (ovary, adherent)	0.853	> 20	0.814	27.5	0.85	> 10200	0.943	> 10.2	0.957	> 10	0.783	2.56	0.982	> 10
OVISE (ovary, adherent)	0.871	> 20	0.63	6.41	0.304	149	0.609	1.41	0.978	> 10	0.909	> 5	0.945	> 10
OVK-18 (ovary, adherent)	0.984	> 20	0.872	> 40	0.906	> 10200	0.932	> 10.2	0.967	> 10	0.877	> 5	0.978	> 10
OVKATE (ovary, adherent)	0.944	> 20	0.746	21.1	0.791	8760	0.969	> 10.2	0.977	> 10	0.978	> 5	0.979	> 10
OVMIU (ovary, adherent)	0.887	> 20	0.692	9.95	0.226	81	0.61	1.38	0.978	> 10	0.968	> 5	0.971	> 10
